From paper PMC7819943, “Rice protein-binding microarrays: a tool to detect cis-acting elements near promoter regions in rice”
The list shows a part of the results.

What follows are sequences tested against T1, OsWOX13 (Oryza sativa, UniProt Q5QMM3 1-267) (assay: protein-binding microarray (RPBM); PBS, 2% BSA, 51.3 ng/ul salmon testes DNA, 50 uM zinc acetate, 200 nM TF, 25 C, 1 h; high values mean tight binding). Conditions: protein: recombinant; tags: N-terminal polyhistidine and DsRed monomer fusion (pET32a); label: CyDye5-dUTP incorporated in the synthesized complementary strand; 3' TTTTT single-stranded linker to array surface; dsDNA, one strand shown.
T1 sequence: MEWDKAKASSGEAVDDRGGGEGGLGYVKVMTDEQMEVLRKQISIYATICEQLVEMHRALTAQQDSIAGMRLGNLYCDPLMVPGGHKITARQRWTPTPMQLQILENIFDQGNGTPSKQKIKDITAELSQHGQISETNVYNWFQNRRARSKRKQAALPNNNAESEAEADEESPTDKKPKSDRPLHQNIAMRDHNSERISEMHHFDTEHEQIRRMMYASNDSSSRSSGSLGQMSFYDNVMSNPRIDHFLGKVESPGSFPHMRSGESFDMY
Outline: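 Transcription factors were each fused at the N-terminus to a polyhistidine tag plus DsRed and expressed in E. coli BL21-CodonPlus before Ni–NTA purification. Binding to a double-stranded custom Agilent array was carried out with 200 nM protein at 25 °C for 1 h in PBS, 2% BSA, salmon testes DNA and 50 µM zinc acetate. The binding signal is per-feature fluorescence intensity, in arbitrary units, on an Axon 4000B scanner.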

Row | Sequence | binding signal
1 | AGGCCTTAATTTATTATTCGTTTGAGATAATGGGCCGGGCCGGAGTCACCTAGTGCAG | 13400 fluorescence intensity (a.u.)
2 | ATTACACCAACAAATTGACTGAAATCAAATTCATTATCGGCGGAGTCACCTAGTGCAG | 23200 fluorescence intensity (a.u.)
3 | TGCATACCCTCAATCATTTCCTTGTTTTATCTTCTTTCAGCGGAGTCACCTAGTGCAG | 4070 fluorescence intensity (a.u.)
4 | ATGTAATTTCTTTATGTGCTAGATTAAGAACACTAATTCCCGGAGTCACCTAGTGCAG | 10500 fluorescence intensity (a.u.)
5 | GCACAAATTACCAAGATTGGGCGCTGGTAATGCGGGTGAACGGAGTCACCTAGTGCAG | 21500 fluorescence intensity (a.u.)
6 | CAAGTAAACATCAACTCGGCGTGATTGTTCTAGGGTGACCCGGAGTCACCTAGTGCAG | 5190 fluorescence intensity (a.u.)
7 | ATGATCATTTACTGATTGTGAACTGTAGTCTCTGTGGTCTCGGAGTCACCTAGTGCAG | 18700 fluorescence intensity (a.u.)
8 | TTCTGATTTCTGCCATTGATTATGATTTCAGCATGTTTTCCGGAGTCACCTAGTGCAG | 11800 fluorescence intensity (a.u.)
9 | GTAATTTATATTGAAATGCAATTACTTCCTCCGTTTCACCCGGAGTCACCTAGTGCAG | 21800 fluorescence intensity (a.u.)
10 | ATTAATTATCAGTGAGCACAAGCCTGGCATGTAAATCATGCGGAGTCACCTAGTGCAG | 24800 fluorescence intensity (a.u.)
11 | TCGAAGCAAAATTGAATCGATACAATTTAACGCCCATTTTCGGAGTCACCTAGTGCAG | 3260 fluorescence intensity (a.u.)
12 | TATCTTTGACAAACTTTATTCGTTTCCGAAAATTTGGCAGCGGAGTCACCTAGTGCAG | 3710 fluorescence intensity (a.u.)
13 | CATAGCCAATTATGTGTCATGTTTTGTGATTTGGTACATGCGGAGTCACCTAGTGCAG | 10000 fluorescence intensity (a.u.)
14 | CTCCACCTGATTGGGGCGCACCCCACATGGGCCCCACTTGCGGAGTCACCTAGTGCAG | 14500 fluorescence intensity (a.u.)
15 | GACGAGACTGAGTTGATTAATTGATTAACATACAAGCTGCCGGAGTCACCTAGTGCAG | 51000 fluorescence intensity (a.u.)
16 | CAACTAATTATGATTGAGAGGCATGATTCCCCTTTCTTATCGGAGTCACCTAGTGCAG | 33000 fluorescence intensity (a.u.)
17 | GTTTAGTTTAAATTCAAATTTAATGTTTCAATTAATCTATCGGAGTCACCTAGTGCAG | 4750 fluorescence intensity (a.u.)
18 | TTTGATGGGATGTATGCTGTGTAGGACACATACTGTGTATCGGAGTCACCTAGTGCAG | 7790 fluorescence intensity (a.u.)
19 | TAGATAGATTTAGTTTTGATAATGGATAGAGATATTGCCCCGGAGTCACCTAGTGCAG | 11600 fluorescence intensity (a.u.)
20 | CATAATTAGCGGTTGATTACTGTAGCATCACTGTAACAAACGGAGTCACCTAGTGCAG | 29600 fluorescence intensity (a.u.)
21 | ACGAGGAAGCTAATTAACCTGACGCCACCACCTCTCTTTCCGGAGTCACCTAGTGCAG | 3480 fluorescence intensity (a.u.)
22 | TATAGTTACTAATCACAAACTGAATGGTCTGAATGACAATCGGAGTCACCTAGTGCAG | 10100 fluorescence intensity (a.u.)
23 | TATATTTGACTGGATGGAGTATCTTGTTTCAAAGAAATCGCGGAGTCACCTAGTGCAG | 10100 fluorescence intensity (a.u.)
24 | TTCCGATTATTATTTGTATTTATTAATTTAGGATTTCTCTCGGAGTCACCTAGTGCAG | 8170 fluorescence intensity (a.u.)
25 | CTTAATTAAGTTTATGTGATAACGAATCATTCCGTTTTAACGGAGTCACCTAGTGCAG | 15500 fluorescence intensity (a.u.)
26 | TTTAATTGTTATGAACACGACAATGTAATCGGATCATAGACGGAGTCACCTAGTGCAG | 10100 fluorescence intensity (a.u.)
27 | CGTAAATTACCTAGTGCTTCTTCACACCTTTGAGTGTATGCGGAGTCACCTAGTGCAG | 27300 fluorescence intensity (a.u.)

Row | Sequence | binding signal
28 | TAATAATGATGGATGGATATGTATGCCATATTAAACAATCCGGAGTCACCTAGTGCAG | 15600 fluorescence intensity (a.u.)
29 | CACAAAGATTGTAATTTTGTTCAGTTTGAGGTTCAATTACCGGAGTCACCTAGTGCAG | 5920 fluorescence intensity (a.u.)
30 | ATTAAACTTTTAATTTTAGCGTGAATTAAACACACCCGAGCGGAGTCACCTAGTGCAG | 18200 fluorescence intensity (a.u.)
31 | AGTCCTAATTGATAGAAAATGTTTAATTTGACCCTAGAATCGGAGTCACCTAGTGCAG | 22100 fluorescence intensity (a.u.)
32 | AATACACATTGACAGATGAGTTAACGCCCGTGACAGGCTGCGGAGTCACCTAGTGCAG | 20500 fluorescence intensity (a.u.)
33 | CTCTGTAAAATTTGTATATCTGATTTTCCATATGGTCTTGCGGAGTCACCTAGTGCAG | 3760 fluorescence intensity (a.u.)
34 | TGTTGATTATTGTCTTCTGAAGATGAGCATGCTCTGCTCTCGGAGTCACCTAGTGCAG | 19300 fluorescence intensity (a.u.)
35 | GCTTAATTATTTGGATTGTTTATCACCACTATATATATGTCGGAGTCACCTAGTGCAG | 45700 fluorescence intensity (a.u.)
36 | ATAATTTATAAATAAAACTTTTATATATGTGCTATTAACGCGGAGTCACCTAGTGCAG | 15800 fluorescence intensity (a.u.)
37 | ACTTCGATGATTTGGCTGATCTTGTGGAGAAAGCATTGCGCGGAGTCACCTAGTGCAG | 7180 fluorescence intensity (a.u.)
38 | ATAATTAATCTAAATTTAATACTCCAAATTAACGTCAAACCGGAGTCACCTAGTGCAG | 16200 fluorescence intensity (a.u.)
39 | ATTAAATTACACTCTGTTCATGCAGTTCAGTCGACGTTATCGGAGTCACCTAGTGCAG | 13100 fluorescence intensity (a.u.)
40 | AAGATTACAAATCTTGTGTTTGTCTTGTTGCCACTGCCGCCGGAGTCACCTAGTGCAG | 4420 fluorescence intensity (a.u.)
41 | ATTATGGTAATTAATCACTAATTTTGGACCAGAGATTCGGCGGAGTCACCTAGTGCAG | 29400 fluorescence intensity (a.u.)
42 | TAAAGATGCAATGACTACTAATCAACGTACCATGTACTCCCGGAGTCACCTAGTGCAG | 4660 fluorescence intensity (a.u.)
43 | AAATTTATGTAATTATTATTTATTTTATTGTGACTTGATTCGGAGTCACCTAGTGCAG | 8590 fluorescence intensity (a.u.)
44 | TAACGGGTTGACTCAATCACTGAAATTGTTTAATGGTAGACGGAGTCACCTAGTGCAG | 7170 fluorescence intensity (a.u.)
45 | CCAATGACTGCTATTGTGATGACTTTGGGAGGAAAAGGAGCGGAGTCACCTAGTGCAG | 16400 fluorescence intensity (a.u.)
46 | ATTACTGGTTAACCGATTGAAGTGTCTCATTGACAAGAGGCGGAGTCACCTAGTGCAG | 3470 fluorescence intensity (a.u.)
47 | ATAGTTATTTGATCAGTTATTGTTACACTATACATTGACACGGAGTCACCTAGTGCAG | 4450 fluorescence intensity (a.u.)
48 | GAAATTGAAGATGATGTGACTGAAAAGTTGTGTATATGACCGGAGTCACCTAGTGCAG | 17200 fluorescence intensity (a.u.)
49 | TTAGTGTTAATTATATTAAGTAATTTAGTTAGTTAAGAGACGGAGTCACCTAGTGCAG | 23700 fluorescence intensity (a.u.)
50 | CTGATAGATAATGACCTAGCTTGACTATTCTGATAGATACCGGAGTCACCTAGTGCAG | 26300 fluorescence intensity (a.u.)
51 | TTGATCATTAACGAGGTAATTAATTTAATCTAATCCAATCCGGAGTCACCTAGTGCAG | 22200 fluorescence intensity (a.u.)
52 | AGCTGCTAATTACTGTACACCTGTCACCTCTGGCAGCAGACGGAGTCACCTAGTGCAG | 18200 fluorescence intensity (a.u.)
53 | TCTCTTGATTTCTTTTCTCTCTCAACTCTGTTCTGTTATCCGGAGTCACCTAGTGCAG | 9300 fluorescence intensity (a.u.)
54 | GGATTAATTAGGCTTAATAGGTTCGTCTCACAGTTTACAGCGGAGTCACCTAGTGCAG | 39100 fluorescence intensity (a.u.)
